Tested on: D538G ER mutant MCF-7 xenograft
Assay: D538G ER mutant MCF-7 breast cancer model in NSG mice
Conditions: LSZ102 80 mg/kg daily; fulvestrant 5 mg/mouse weekly

SMILES: C[C@]12CC[C@@H]3c4ccc(O)cc4C[C@@H](CCCCCCCCC[S+]([O-])CCCC(F)(F)C(F)(F)F)[C@H]3[C@@H]1CC[C@@H]2O (stereo partly shown) [Fulvestrant]
- anti-tumor effect in words: also active

Source: patent US20220031657A1 (NOVARTIS AG, priority 2017, published 2022)
